Laboratory results published in the RNAGym collection of RNA variant scans (doi:10.7554/elife.90254).
Read counts are not given, so values of variants with three or more changes are uncertain.

B1: OR4K15 (parent)
chain: GUUAACGGUCAUAGGCCAUGGAAACUAGGAGCACCAUUUCGCUGCCAGUGAAGAAAUGAACAAAGAAAAUCUGGGCCAGGCAGGCAUCAAAAGAAAUAGUCUUGCGCUCAACCAGAAAGUCUGUAAUCAUUUUAAGGGUA

Variants of: B1
Experiment: self-cleavage, relative activity (ratio to wild type); higher = more cleavage; in vitro, sequencing; the parent is a self-cleaving ribozyme

Row | Variant | self-cleavage
1 | U57A A110G U122A | 0
2 | A55G A66G A116G U122C | 1.64
3 | U57C A69G U122C G137C | 0.72
4 | U57A A82G A90U | 0.76
5 | U57C U87A U100C | 1.42
6 | A54U A95G U108A | 0
7 | A59G A64G G74U | 1.78
8 | A59G U72C A94G | 0.14
9 | A59G A62U A64G A90G A96G | 0.6
10 | U57C A114C A126G | 0.01
11 | G58U A92G U97C | 0.94
12 | A55G C113G G137C | 0.01
13 | A59G A63U A78U A118G | 0.18
14 | A56G A66G A114U | 0.03
15 | U57C G104A A110G | 0.01
16 | A55G A111G A116G | 0.05
17 | A59U A117G G137A | 1.18
18 | A59G C77U A110G | 0.34
19 | A59G U122A U130C | 1.76
20 | A55G A56G A60G A68G | 1.38
21 | U57C A60G U102C U131C | 1.85
22 | A59G A86G A110G C121U A129G | 0.31
23 | A56G A66U G84U A86U | 0.64
24 | A56G A91U A117G | 2.64

Row | Variant | self-cleavage
25 | A59G A62G G75A | 0.24
26 | A59G A96G U100C A111G | 0.02
27 | A59U A92G A129G | 0.84
28 | A56G A62U A68G A116U | 0.11
29 | A59G C107U U108C A114U | 0.02
30 | A59G U72A U97G | 0.12
31 | A59U A68G A92G | 0.34
32 | A59U A66G A110U | 0.95
33 | A55G G75C A91G | 0.07
34 | A59G A78G A94G A117G | 0.28
35 | U57C A68G A78G | 0.22
36 | A56G U70A G137A | 1.62
37 | A55G U108C A117G U127C | 0
38 | A55G U87C A91U A117G | 2.02
39 | U57C U72A A118G | 0.09
40 | A55U A111G A118U | 0
41 | A55G A68G G80A A126G U130C | 0.19
42 | A55G A68G A94G | 0.59
43 | A56G A82G A117G A118G | 0.06
44 | A59G A64G A82G U100C U122C | 1.13
45 | U57C A78G U102A | 0.02
46 | A55G A62G A117C | 0.29
47 | A56G A68G U100C A118G | 1.5
48 | A59U A63G A86U A111U | 0.1

Row | Variant | self-cleavage
49 | A56G A59G A118C | 1.02
50 | A59G A78U U122C | 0.54
51 | A59G C77U A82G A110G | 0.07
52 | A56G A68C G73A | 0.16
53 | A55C A59G A95U | 0.85
54 | A55G A64G U122C U133C | 1.64
55 | A55G A63G A66G A92G | 1.8
56 | A59G U122C A126G | 1.25
57 | A56G A114G U139C | 0.24
58 | U57C A60G A114G | 0.38
59 | A56G A59G A68C U72C | 0.04
60 | A55G A64G A96G A125U | 1.24
61 | A59G U72C U120C G137U | 0.03
62 | A55G A60G A62U A82G A96G U97C | 0
63 | U57C A63G A92G A134G | 1.87
64 | A56C U87C U108A | 0
65 | A56G A68G U102A | 0.74
66 | A56G A82G A91U U108A | 0
67 | A55G A92G U132G | 1.36
68 | U57A A95G U120C | 1.43
69 | A54U C71A C88A U102C | 0.34
70 | A55G A59G A94G A116G | 0.3
71 | A54U A91G A116U U130C | 0.01
72 | U57C A78G A91U A117U | 0.12

Row | Variant | self-cleavage
73 | A55U A60U A114G | 0.27
74 | A59U A62G U87C A96G U102C U103C U108A | 0.01
75 | A59G A78U G136A | 0.35
76 | A56G A82U A98G C128U | 0.05
77 | A56G A82C U122C | 0.03
78 | A55G A96G G106A U120C | 0
79 | G58U A66G A92C G138A | 0.9
80 | U57A A66G U103C | 0.33
81 | A56G A64G A96G A116U U130A | 0.19
82 | A59G A66G A67G A89U | 1.19
83 | A56G A82G A90G | 0.29
84 | A55G A60G A110G A140G | 0.15
85 | A55G G84U A90U A116G | 0.06
86 | A59G A82G A118G A126G | 0.23
87 | A55G A67G A135U | 1.34
88 | A59G A69G C101U | 0.16
89 | A59G G65U G74U | 0.34
90 | A55G U57C A59G U72C | 0.23
91 | U57C A66G A68G | 0
92 | A56U U57C A117G U120C | 0.3
93 | A55G A56G A117G | 1
94 | A54U U57C U103A | 0.1
95 | A55G A82G U103A U108C U122C | 0.01
96 | A59G A78U A117G A140G | 0.35

Row | Variant | self-cleavage
97 | U57C A116G U122C | 0.67
98 | A56G U57C A95G A98G | 1.46
99 | A56C U87C A89U A110U | 0.46
100 | A55G A59G A91G U130C | 0.57
101 | A55G A94G U100A | 0.05
102 | A59G A92U U132C | 1.39
103 | U57C U72C A110U | 0.22
104 | A59U A94G A118G A126U | 0.64
105 | A56U A92G U103C | 0.09
106 | A59U A78G A89G A110U | 0.39
107 | A59G A62G A69G | 1.27
108 | A59G A89G A117G | 1.6
109 | A59G A92G U102C | 1.12
110 | A55G U57C A89U A117G | 2.07
111 | A56G A63G U103C A116G U122C | 0.09
112 | G58U A118G A125U | 1.31
113 | U57C G93A U103C A135G | 0.47
114 | A55G A60G A135G | 0.49
115 | A55G A98G U108C A118G | 0.01
116 | A59G A62C C105A U122C | 0.01
117 | G58A U87C A92G A110C | 0.24
118 | A59G A94G U97C | 0.92
119 | A59G A67G A78U U130C | 0.25
120 | A59G U102C A114G | 0.46

Row | Variant | self-cleavage
121 | A59G A67G A82G U100C | 1.19
122 | A55G A63G A67G | 0.99
123 | A55G A64G A95G A116G | 0.4
124 | A56G U87C A91G A116G | 0.25
125 | A59U A62G A114G | 0.39
126 | A54U G65A A94U | 2.31
127 | A59G U103C A111G | 0
128 | A59U A89G A94G | 1.02
129 | A56G A64G U124C | 0.84
130 | A59G C61A A62G A92G | 0.98
131 | U57C A78G A95G C112A A114U | 0.01
132 | A55G A67G A78U | 0.02
133 | A59G A86G A90G | 0.39
134 | U57C A62U A114G | 0.18
135 | A56G U97C A98G | 1.51
136 | A59G A78G A91G | 0.11
137 | A59G U102C U103C | 0.16
138 | A56G A116G U120C G123A | 0.26
139 | A55G A67G U120C | 0.41
140 | U57C A64U A94G C113U | 0.03
141 | A56U A59G A67G A118G A135G A140U | 1.36
142 | A55G A114U A117G | 0.04
143 | U57C A91G U130C U133A A140G | 0.92
144 | A54U U100A A126G | 0.21

Row | Variant | self-cleavage
145 | A56G A68G U100C | 1.95
146 | A59G A125G G137A | 0.29
147 | A56G A92G A117G U131C | 1.4
148 | A59U A66U A98G U131C | 1.05
149 | U57C A118G U124C A126G | 0.86
150 | A56C A86G U103C U108C | 0.01
151 | A59U A62G A63G U108A | 0.08
152 | A56G A94G U122G U131C | 2.37
153 | A59U A125G A140U | 0.27
154 | A59G A64G A86G A126G | 0.71
155 | A55G A66G A110G | 0.1
156 | U57A C112U U127C | 0.01
157 | A59G U132C U133A | 1.42
158 | A56G A69G G83A U100C C121A | 1.68
159 | A59U A94U A111G | 0.02
160 | A55U A60U A94G | 1.81
161 | G58A A62G U87C A89G U120A U127A | 0.17
162 | A55G A60G A66G U97C | 0.96
163 | A55G A59U A98G U127C U131C | 0.08
164 | U57C A78U A116G | 0.05
165 | G58U A69C A91G A126G | 0.52
166 | A55C A60G A64G A110U | 1.07
167 | G58U U102G U120C | 0.18
